Whole data set: some 33,000 sequences, median “E-score (-0.5 to 0.5)” near -0.011, cut for the highest 2% near 0.28. The list shows a part of the results.
Target: T1, Gcr1 (UniProt P07261)
T1 sequence: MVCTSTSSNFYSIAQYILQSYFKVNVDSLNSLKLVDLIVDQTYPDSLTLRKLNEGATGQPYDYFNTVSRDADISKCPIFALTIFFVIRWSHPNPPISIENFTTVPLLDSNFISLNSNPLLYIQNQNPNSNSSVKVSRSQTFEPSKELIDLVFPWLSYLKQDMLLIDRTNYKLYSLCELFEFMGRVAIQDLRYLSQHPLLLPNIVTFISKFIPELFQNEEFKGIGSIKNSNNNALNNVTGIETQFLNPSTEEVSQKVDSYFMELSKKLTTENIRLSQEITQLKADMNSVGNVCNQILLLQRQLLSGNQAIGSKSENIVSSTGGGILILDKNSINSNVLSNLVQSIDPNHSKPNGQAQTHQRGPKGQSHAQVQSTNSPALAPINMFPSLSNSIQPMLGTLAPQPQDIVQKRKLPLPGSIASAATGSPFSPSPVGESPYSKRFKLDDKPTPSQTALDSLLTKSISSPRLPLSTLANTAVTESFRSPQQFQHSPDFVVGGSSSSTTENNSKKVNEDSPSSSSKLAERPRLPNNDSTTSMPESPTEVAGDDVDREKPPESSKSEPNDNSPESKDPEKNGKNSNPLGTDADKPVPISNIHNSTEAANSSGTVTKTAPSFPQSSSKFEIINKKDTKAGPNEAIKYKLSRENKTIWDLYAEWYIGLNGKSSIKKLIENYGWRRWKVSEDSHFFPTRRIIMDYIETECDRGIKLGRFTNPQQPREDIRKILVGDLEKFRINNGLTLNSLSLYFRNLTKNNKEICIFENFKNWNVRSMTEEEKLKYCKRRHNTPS
Assay: PBM E-score (8-mer binding enrichment) (E-score (-0.5 to 0.5)); higher = stronger / more preferred TF binding; most listed sequences are background and not binding sites
Conditions: protein concentration: 100 nM; construct: GST-full length
How it was run: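 Universal all-10-mer Agilent arrays, double-stranded by primer extension on fresh or once-stripped slides, were probed with about 100-200 nM GST-tagged yeast transcription factors made by PURExpress. Fluorescent anti-GST detected bound protein, and masliner normalised the scans. E-scores from the Universal PBM Analysis Suite were given to each ungapped eight-base word pooled with its reverse complement.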

Sequence	PBM E-score
AGGTTCTC	0.173
CTTCGGCA	0.0669
GTAAGTAC	0.0123
CTTATGCA	0.0737
CTCCATGA	-0.0325
AAGCGTAA	-0.0768
AGACATCC	0.0262
AGCCATAA	0.0703
GAGACTTA	-0.182
TACTGCGA	-0.195
CACGGACA	-0.017
AGGCCCCT	0.135
CATTTTAC	0.24
ATTCATTC	-0.0719
TCAAACGA	-0.145
GACATATA	-0.0745
ATTATCCG	0.00436
AAGTCAAT	-0.0603
ATTCCTAC	0.0721
CTGTGAGA	-0.18
AAGCGCTC	-0.0298
GTGTGCCA	0.0266
CCGGAGGC	0.111
CTCTCACA	-0.187
CGTTACTA	-0.01

Sequence	PBM E-score
AGTCACGA	0.114
CCGGGTTA	-0.141
AGAACTCG	0.102
CAGGTTTC	0.163
GCAGTTCA	-0.157
CGTTCTGA	0.0165
AAGACCGA	-0.227
AGCGCTAT	-0.0501
CCGGATCG	0.00245
ACGTAACT	-0.105
ATTGCGGG	-0.0146
AACGTTAT	-0.0792
GGTCGGGA	-0.0604
CTCATTCC	0.0687
ACATACCA	-0.0703
CGGCAATC	-0.0601
GAAAGACA	0.0752
CGCATGGC	-0.117
AGAGCAAC	0.00171
AGTATTTG	0.0559
GATGACGC	0.0537
GACCAATC	-0.00665
ACTGCTCT	-0.184
GTACTGCA	-0.237
GTGTCAGA	-0.1

Sequence	PBM E-score
GTTGAGAA	0.088
ATTAACGG	0.132
ATGGCCTA	-0.138
AGGGGGTC	-0.252
TCCCTGCA	-0.183
GACGTGCC	-0.14
CCCCAACC	0.0379
GGACGTCC	0.291
AATAGTGC	-0.175
CAGTACAC	-0.126
CTACATCC	-0.0889
CATAAGTC	-0.129
CCCGGGAG	-0.00478
CAGAACAG	-0.185
GATTTCGA	0.0554
GAAATGCC	-0.15
AGAAAGAC	-0.056
AGGCCGTA	-0.173
CGCATGCA	-0.0879
AGTAATAA	0.104
ACTAAGAG	0.0934
AGCGGTGA	-0.133
TCTAAACA	0.102
AGCCGTAA	-0.129
CCTGCTAA	-0.227

Sequence	PBM E-score
GCGCACCA	0.175
GTATGTCA	0.136
GAGCAGCC	0.217
ACGCAGCG	0.244
CAGCCCGA	-0.124
AGGTAGTA	0.0909
ACGCGGCC	0.0165
CGGAAGGC	0.00052
GAAGACCA	-0.133
ATAAGAGC	-0.127
GAGTAGAA	0.0678
ATTCATCA	-0.0442
ACAGCCAG	-0.102
ACTCTTCC	-0.211
CGATGGAA	-0.0791
AACACTGG	0.125
AACCTACA	-0.15
CACCTAGA	0.205
TACTCGGA	-0.0115
GAGGGCAA	-0.168
TACTGGCA	0.121
CTTACGAA	0.0781
ATGCGACG	0.0165
AGTCATTC	-0.176
AGGAACAC	0.059

Sequence	PBM E-score
AAAATTGT	-0.102
CTATGCAG	0.00154
ACAAGATC	0.0465
AAGAGGAT	0.0595
CAAATATA	0.144
CAGGACGC	0.412
TGTGTCAA	-0.188
CATATCGG	0.0304
AGTTCCCA	0.22
AGGGTCCG	0.0344
ACAGGTGA	-0.139
CTTCTCCA	-0.00853
CGCGATGC	0.137
CCGCGTTC	-0.213
GACGATGA	-0.11
AAAATCGG	0.0872
ACCTGTAT	0.322
GTCCTGGA	0.0405
GCCCGCGA	0.0175
CAGGGGGC	-0.125
AGCGGTAG	0.027
ACAATCTC	-0.113
AACTCACC	-0.0671
CGTAGAAC	0.0339
ATAGAAGC	0.315

Sequence	PBM E-score
AGGATGTA	-0.0354
ACTGGCCG	0.0365
GACGTTTA	0.0575
CTGTCTAC	-0.0405
GAAAAATC	-0.0766
GCAACGGA	-0.0561
CAGTACCG	-0.225
TAAGCAAA	-0.0549
GTTTGAGA	0.13
AAACAAGG	0.16
AATACCCA	0.153
CGTACTGC	-0.359
GGTATTAC	0.121
GGGACCGA	-0.0653
AGTTCCAA	0.192
AATTGCAC	-0.142
GTAAGACA	-0.0656
TATTTAAA	0.243
AAGTGATG	0.0629
AGTGTTGA	0.0776
AGGGGCAA	-0.0326
AGTCTAGG	0.15
ATCCATTC	0.114
AAAGCGAA	-0.0378
CATTGGGG	-0.0755

Sequence	PBM E-score
CAGGGTTC	0.0778
CACTCAGC	0.14
AGAAAAAA	0.0389
ATCCTTGG	0.142
CCATTTAA	0.304
AATTCGAG	0.0234
GCACCGAA	0.143
CAGGTCGA	-0.23
ACGAAACC	-0.0164
AAGACTGT	-0.262
AAGTTGAG	0.0769
GGATTCGA	-0.0132
AACTCGTC	-0.0513
ACTTCTCG	-0.0046
CACCCTCA	-0.098
ATAAAGTA	0.121
AAAAGCTA	-0.0743
TCCTTAAA	0.188
CTGCTCCC	-0.0369
AGTACCCA	0.0854
CGGGGCTA	-0.145
AAGTCTTG	-0.201
CTTTACTC	-0.104
ACGCCCGG	0.00623
GGGTTTTA	0.0307

Sequence	PBM E-score
AGCCCCGG	-0.0603
GGCCTCAA	-0.064
CCCGCGGC	-0.0884
AAATCACG	0.0802
CCCTCAGC	-0.0815
ATGTTACG	-0.0472
ACTCGCAA	-0.0245
CAGCCTCC	0.0111
GGGCGCGA	0.187
CTCCAAGC	-0.0749
AGAGGAAG	0.385
CATACATG	0.138
AATCTCGG	0.0556
ATCCGCGC	-0.17
TCCGCAGA	0.0495
AAACCTGG	-0.0106
CACGAGCA	-0.175
GATCAACA	-0.0228
CGTGAGAC	0.0202
GACTTACC	-0.13
CTCAGCGC	-0.0893
AACAATTG	-0.0456
GGGGGGTA	-0.184
ACTCAAAC	-0.0659
CAGATGAC	-0.0757

Sequence	PBM E-score
ACAACAGT	0.0426
AACGGCAT	0.0261
ACGACCCC	-0.137
CTACTAGC	0.0837
GGCCCCCA	0.231
CCAACACG	-0.0387
GCCTGTCC	-0.0681
CGGACGAG	-0.00195
GTACCGCA	0.0162
AATGAATA	-0.111
ACTAACCT	-0.152
CTATACCC	0.026
CTTACCAA	-0.046
TGTCACAA	0.105
ACGGAAAG	0.00962
GACGCTAC	0.249
GATGCTGA	0.312
ATCCCGGG	0.0771
CCGAGTAG	-0.0161
